B1: LINE1-full (parent)
chain: UACGUAGGUGGUUUUCCCCUGAUAGUGCUAAGGGGGCCUGGAAGUUUGGACUGGGCAGAGCUCAACACAGCGUGGCAAAGUGGCUGUGGCUAGACUGCCUCUCUGGAUUCCUCGUCACUCAGCAGGGCAUCUCUGAGAGAAAUGCC

The source gives no read counts; variants with many changes may rest on few reads.

In the data set the parent is B1. Briefly: self-cleavage, relative activity (ratio to wild type); higher = more cleavage; in vitro, sequencing; the parent is a self-cleaving ribozyme.
In the case of U12G U26C U73A U104C, the self-cleavage turned out to be 0.66.

For A67G U96A U102A A129U U134C, the self-cleavage amounted to 0. The value for U45C C113A A129G was 1.55. The value for A31U A94G A141G A142G was 0. The value for U13C U26C U100C was 2.47; that for A57U U81C U134A was 0.1.

G27A U45C U47C: the self-cleavage came out at 1.11. With U20C U87A A121G, the self-cleavage worked out at 0.15. The value for G35A U46C U52A was 1.12; that for U15A U73C U100C was 0.61. The value for U14C U45C A59G A140G was 0; that for A43G A57G A124U A136U A138G was 0. The value for U96C A124G A140G was 0. For the variant U73A U100C A121U, the self-cleavage worked out at 1.71. The value for A2G A22U U85C U96G was 0; that for U13C A50U A92G U132C G135U was 0. The value for U9C A65U G127U was 0.18; that for A57G U62A A77G U112C was 0; that for U12C A57U A64G A94G U130C was 0.

Regarding U14C U46A A50G U96A A124G C131U U134A A136U, the self-cleavage turned out to be 0.1. Take C56U U100C A142G: the self-cleavage stood at 0.66.

With U15A A31G U87A, the self-cleavage came to 0.23. The value for U12C U102C A142G was 2.22. The value for A30G U62A A136G was 0.28; that for C19U U47A A141G was 0.37. The value for U45C U85C A141C was 0.34; that for U39A U45C G55C was 0.05; that for A24C G40A U52A A67U U112C was 0.16. For the variant U62A A79G A124U, the self-cleavage stood at 0.12. The value for A30U U81C U91C A142G was 0.57; that for U20A G40A A57U A129G was 0.09.

As for A78U U109C G127A A142G, the self-cleavage came to 0.47. The value for A31G G35A U62C U115C was 0; that for U108C A138G A142G was 1.84.

U5A U73C U100C: the self-cleavage came out at 2.3. The value for C110U U115C U134A was 0.93; that for A50G C90U C118U A136C was 0.03. On to A2U A43G U47C C56A U100C, for which the self-cleavage stood at 0.11.

For the variant U26C U112C U143C, the self-cleavage was determined as 2.41.

As for G34U A79U A138U, the self-cleavage is 2.69.

For the variant A78G A117U U130C U134A C145G, the self-cleavage is 2.27. The value for U9C U73C A79G was 1.62. The value for C37U A78U U134C was 1.86; that for A69G A78G C120A was 0.23; that for U1C C18U U104C was 1.01.

As for U15C U26A U134C, the self-cleavage is 1.26. The value for A2G U13G U14C U73A U102C A140C was 1.7. The value for G4C U13C A59G was 0.15; that for G35A A79C G89A A94G U134C A142G was 0.04; that for U13C A50C A65G G70A A138U A140G was 0. The value for U15C G53U A121G was 1.53; that for G21U A67G U91C was 0.11. For A31U A78U U96C A117G, the self-cleavage is 0. The value for U47A U62A A136U was 0.01.

On to U26C A43U U112C A124U, for which the self-cleavage was 1.05.

In the case of U1C U73A U81C U115C, the self-cleavage was 1.53. The value for U12C U46A U134C was 1.65; that for A94U U100C G105A was 0.46.

Consider U23C U26C C66U U102C A124G, for which the self-cleavage turned out to be 0. The value for C38U U85C G122U was 0.15; that for U14C G35A A64U C76U U119C was 0.69; that for G32A U109G U134A was 0.52. The value for U46A A69G U132C was 0.49; that for U15C A31U U85A A107G U119C was 0.11; that for A57U A78G U81C U104A was 0. For the variant U26C C28U U46C G74A U91C A136G, the self-cleavage was 0.35.

As to A79U C110A U143C, the self-cleavage was determined as 0.8. As to A31G A64G U96A G127A, the self-cleavage was found to be 0.02. The value for A6G U134A A141G was 0.56; that for C3A A64G A141G was 0.15; that for U45C U46C U73A A129U was 2.72. The value for A24G G27A A65G U115A was 0.06; that for U45C A79G A129G was 0.61; that for U12C U15C G34A was 0.84.

Regarding U20C U39A G72A, the self-cleavage turned out to be 1.42. The value for U9C A24C U73A C116U was 1.2; that for U9A G53A A140G was 1.02; that for A57C U109C U130C A136U was 0. In the case of G60A U115C G139C, the self-cleavage is 0.02. The value for U20A C61U U112C was 0.04. The value for G74A A78G U96C was 0. The value for U1C U52C U81C U109C U134A was 0; that for U15A U20C A140U was 0.75; that for A94U U102C U119C A142G was 0.14. As to A57U U102C C116U U119G U130G A136G, the self-cleavage is 0. The value for G33A A59U U73C was 1.04. Consider U13C U46C A78G, for which the self-cleavage was 1.11.

U12G G33A A57G A121G: the self-cleavage was determined as 1.28. The value for C19A A67U A78U A140G was 0.15. The value for U13A A42U U62A C90U A94U A129U was 0.02.

A6U G36A A117G: the self-cleavage was determined as 0.69. The value for G32A U96A A107G was 0.09; that for A43G U85G U132C U143A was 0; that for U132C A140U U143C was 1.37. The value for G41U U47A A77G was 1.6; that for A43C A57G A136G was 0.88. The value for U13C C19U U104A G114A was 1.35. With G40A A50G U130C, the self-cleavage was found to be 0.54. For G33A U45A C128U A136U, the self-cleavage was found to be 1.24.

In the case of A30G A79G U102C, the self-cleavage came to 0.57.

Consider U26C U81C A94U U119C G125A A129C, for which the self-cleavage stood at 1.53. The value for G40U A65G U91G was 0; that for U20C C28A U102C was 1.64. U26C A50U U81C A94G: the self-cleavage was found to be 0.54.

With U14C U39A A59G U73A A117C A136G, the self-cleavage came out at 0.08.

On to U20A U52C A67G, for which the self-cleavage was found to be 0.57.

For U23G G36A A42U G97A U115A, the self-cleavage is 0.03. Regarding U115C U134C A138G, the self-cleavage stood at 1.53.

With A67U U81G A94U U104C A129G U130A U134A, the self-cleavage was found to be 0. The value for U12C A43G U112C A138G was 0; that for A22U A50G U112C G126A G144A was 1. The value for U15A U102C U134G was 0.61; that for U13C G36C A136G was 1.39. The value for A30G U47C A138G was 1.15. Take A59U G86A U119C: the self-cleavage worked out at 0.07. The value for U20A A107G U112C was 0.79; that for U14C A57G A64G U85G A138U was 0. The value for U39A A94G U130C was 0.08; that for U20C A64C A79G C113U A141G was 0.36; that for U12C A43G G144U was 1.5. The value for U13C C19U U112C A117G was 1.17; that for U14C A77G A78G A94G was 0.

For the variant U39C A42G A121U A141G, the self-cleavage is 1.18. For U46C U85A A138G, the self-cleavage was found to be 0.25. The value for A42G A124U U130A was 1.4; that for U39C A43G U47C U119C was 2.63; that for G33U A94G A121G U132C was 0.17. For the variant U13A U45C G75A, the self-cleavage stood at 0.77. The value for G72A G127A A136G was 1.71; that for U1C U20A U47C U96C C111U G122U was 0.12; that for U45C U47A G88A was 0.03. The value for A79C U119C U132C was 1.31. As for G86A U115C A140G, the self-cleavage came out at 0.07. The value for U13C G53A C61U A124U was 0.06; that for U23A U47A U102C U134C was 1.02. The value for U1G A69U A136G A140G was 0.24; that for U1C U12C U134C was 0.84.

With U14C G114A U143A, the self-cleavage was 1.3.

With A77U A79U A107G A140U, the self-cleavage was 2.61. The value for U39C U73C A141G was 1.7; that for U45C U91A A141G was 0.61; that for G4A U45A U143G was 1.43. The value for U1A A24G U52A G72U C84U was 0.62; that for G32U C37G A57G U87C was 0.1; that for U14C C90U U119A was 0.06. The value for G34A G48U A57G A65G A78U G106A G135A A142G was 0.02. As for U46A U62A A124G A140G, the self-cleavage amounted to 0.06. The value for U14A U23C U96C A129G U132C was 0.32; that for A2G A67C U91C A138G was 0.21; that for A57G C71U U96A was 0.04.

Take A57U A77U A107G A142U: the self-cleavage is 0.1.

With U26A U47A A79G U115C U130C, the self-cleavage was 0.48. The value for A2G U14C U62A U143A was 0.31; that for G49A U81C U87A U112C C116U U119A was 0.05; that for U87C U100A U104C was 0.12. The value for A22C C71U C131G was 0.92; that for C38A U73C A129U was 2.12; that for U1C A2C A57C G74A A77G G105A was 0.07.

On to A30U A42G A79U U102A U143C, for which the self-cleavage was determined as 1.22. The value for U15A U23A U85A was 0.02; that for U62C A78U U115C was 0.02; that for A24G G32A U46A A79G C128U was 1.06. As for U45A A57G A77G U81A C131U, the self-cleavage came to 0.54. Take U26A A42G G53A A65G A94G: the self-cleavage stood at 0.1. The value for U26C U87C A138G was 0.4. Regarding U52C A57U A64G U91A, the self-cleavage worked out at 0.19. Take A77G A138G A141G: the self-cleavage was 2.79.

These data come from the RNAGym collection of RNA variant scans (doi:10.7554/elife.90254).
